Hit rate of the full screen: of about 52,000 compounds, about 1,700 (3.3%) were called active. No stated cut-off is given here; in the data, active means survival mostly below about 52% (no sharp cut-off); inactive means mostly above about 56%. The list shows a part of the results.

The test system of the assay is Wild type. Description: growth inhibition of S. aureus wild type versus tarO mutant, primary screen, teichoic acid synthesis inhibitors, RN4220, OD600 (AID 463173). The following applies: S. aureus RN4220 wild type/DeltatarO growth, OD600, 18 h, stronger effect = lower value, screened at 18.75 µg/mL (by protocol).
In the case of `CCOc1ccc(Nc2ncnc3scc(-c4ccc(OC)cc4)c23)cc1`, the survival was inactive: 73%.

Take `Cc1ccc(C(=O)NCc2ccccc2)cc1NC(=O)c1nsc2ccccc12`: the survival is inactive: 72%.

Turning to `Cc1ccc(NC(=O)c2oc3ccccc3c2NC(=O)C23CC4CC(CC(C4)C2)C3)cc1`, the survival is inactive: 36%.

On to `CCC(c1nnnn1CCOC)N(Cc1cc2ccc(OC)cc2[nH]c1=O)C1CCCC1` (stereo unspecified), for which the survival was inactive: 109%.

As for `Cc1cccc(OCC(=O)OC2CCN(C)CC2)c1`, the survival was inactive: 109%.

As for `Cc1c(NC(=O)CN2C(=O)c3ccccc3C2=O)c(=O)n(-c2ccccc2)n1C`, the survival was inactive: 103%.

`O=C1CCC(=O)c2oc3ccccc3c2N1`: the survival was inactive: 109%.

In the case of `CCOC(=O)c1c(C)[nH]c(C)c1S(=O)(=O)N1CCC(C(=O)Nc2ccc(C)c(N(C)C)c2)CC1`, the survival was inactive: 56%.

Take `CCc1ccc(N2C(=O)CN(S(=O)(=O)CC)CC2(C)C(=O)NC2CCCCC2)cc1` (stereo unspecified): the survival was inactive: 72%.

Consider `COc1ccc(-c2nc3n(c2NC(C)(C)C)CCN(C(=O)Cc2ccccc2F)C3)cc1`, for which the survival is inactive: 115%.

Consider `Cc1cc(-c2ccc(C)c(S(=O)(=O)NCc3cccs3)c2)on1`, for which the survival is inactive: 59%.

With `Cn1cc(C(=O)NCCc2ccccc2)c(=O)c2cc(S(=O)(=O)N3CCCCC3)ccc21`, the survival is inactive: 84%.

In the case of `CC(C)(C)OC(=O)N1CCC(c2c(C(=O)N3CCN(Cc4ccccc4)CC3)cnn2-c2ccc(Cl)cc2)CC1`, the survival was inactive: 85%.

On to `O=C(CNC(=O)c1ccccc1)OCc1cc(=O)n2nc(C3CC3)sc2n1`, for which the survival is inactive: 74%.

In the case of `CCC(=O)Oc1ccc2c(c1)nc(C)n2CC`, the survival is inactive: 112%.

As to `O=c1c2oc3ccccc3c2n(Cc2ccc(Cl)cc2)c(=O)n1Cc1ccccc1`, the survival was inactive: 113%.

Turning to `CCC1CCCCN1C(=O)CCS(=O)(=O)c1cc2c(cc1C)NC(=O)CO2` (stereo unspecified), the survival is inactive: 81%.

For the molecule `COC(C(=O)Nc1ccc2c(c1)OCCO2)c1ccccc1` (stereo unspecified), the survival was inactive: 114%.

With `Cc1ccc(Nc2c(-c3ccc(C)o3)nc3cccc(C)n23)cc1`, the survival is active: 21%.

On to `CCS(=O)(=O)c1ncc(Cl)c(C(=O)NCc2ccccc2)n1`, for which the survival was inactive: 75%.

With `Cc1cc(C)cc(-n2c(SCC(=O)N3CCCCCC3)nc3c([nH]c4ccccc43)c2=O)c1`, the survival is inactive: 78%.

Take `c1ccc(Cn2nnnc2C(c2cccs2)N(Cc2cccnc2)Cc2ccco2)cc1` (stereo unspecified): the survival is inactive: 129%.

Turning to `COc1ccc(-c2cc(=O)oc3c4c(ccc23)OCN(Cc2ccccc2)C4)cc1`, the survival is inactive: 89%.

Regarding `O=C(Nc1cc(F)ccc1F)c1ccc(CN2CC(=O)N3CCCCC3C2=O)cc1` (stereo unspecified), the survival was inactive: 76%.

With `CC(=O)c1ccc(NC(=O)CSc2nnc(N)s2)cc1`, the survival was inactive: 80%.

In the case of `COc1cc(Cl)c(C)cc1NC(=O)Cn1c(C)c2cnn(-c3ccccc3)c(=O)c2c1C`, the survival is inactive: 87%.

Regarding `C=C(C)Cn1c(SCC(=O)c2ccccc2)nc2sc3c(c2c1=O)CCCC3`, the survival is inactive: 84%.

`CC(=O)Nc1c(C)nn(-c2ccccc2)c1N1CCC(C(=O)NCc2ccc(F)cc2)CC1`: the survival was active: -3%.

Take `O=C(Nc1cccc(C(F)(F)F)c1)C1CCN(S(=O)(=O)c2cccs2)CC1`: the survival was inactive: 92%.

In the case of `O=C(O)CC1S/C(=N/N=C/c2ccccc2)NC1=O` (stereo unspecified), the survival was inactive: 108%.

On to `COCCn1nnnc1C(CC(C)C)N1CCN(c2cc(Cl)ccc2C)CC1` (stereo unspecified), for which the survival is inactive: 109%.

Regarding `CCn1cc2nc(SCc3cccc(C(F)(F)F)c3)n(Cc3ccc(OC)cc3)c(=O)c2n1`, the survival is inactive: 71%.

Consider `NC(=O)C1CCN(C(=O)CCSc2ccc(Cl)cc2)CC1`, for which the survival was inactive: 100%.

Consider `COc1cc2c(cc1NC(=O)COc1ccc(Cl)cc1)oc1ccccc12`, for which the survival is inactive: 83%.

In the case of `COc1ccc(NC(=O)Cn2c(=O)n(Cc3ccco3)c(=O)c3oc4ccccc4c32)cc1Cl`, the survival is inactive: 78%.

For the molecule `CN(C(=O)c1ccccc1)C1CCS(=O)(=O)C1` (stereo unspecified), the survival was inactive: 111%.

With `CC(=O)Nc1ccc(C(=O)Nc2ccc3c(c2)N(C2CCCC2)C(=O)c2ccccc2S3)cc1`, the survival was active: -6%.

Consider `COc1ccc(-n2ncc3c2ncn2nc(Cc4ccccc4)nc32)cc1`, for which the survival is inactive: 89%.

On to `Cc1ccccc1CNCc1c(C(=O)O)c(C)n(Cc2ccc(F)cc2Cl)c1C`, for which the survival was inactive: 79%.

As to `Cc1ccc(-c2noc(-c3nnn(-c4ccc(Br)cc4F)c3C)n2)cc1`, the survival was inactive: 89%.

`O=C(N1CCOCC1)N1CCN(Cc2ccccc2)CC1`: the survival was inactive: 90%.

In the case of `O=C(Nc1ccc(F)cc1)c1cc2cc3ccc(Cl)cc3nc2o1`, the survival was inactive: 88%.

With `Cc1nc(N2CCN(C(=O)c3ccco3)CC2)c2c3c(sc2n1)CC(C(C)(C)C)CC3` (stereo unspecified), the survival was inactive: 98%.

For `Cc1ccc(C(=O)N2CCCn3c2nc2ccccc23)cc1`, the survival was inactive: 100%.

Turning to `Clc1ccccc1CN1CCc2nc(N3CCN(c4ncccn4)CC3)ncc2C1`, the survival is inactive: 72%.

Turning to `Cc1nc(-c2cccc(S(=O)(=O)N3CCC(C(=O)NCc4ccccc4Cl)CC3)c2)no1`, the survival was inactive: 72%.

In the case of `CCc1c(C)sc2c1CCN(C(=O)Nc1cc(C)ccc1C)C2c1ccc(OC)cc1` (stereo unspecified), the survival was inactive: 88%.

Take `COc1ccc(OC)c(CCNC(=O)Cn2nc(C)n3c(cc4sccc43)c2=O)c1`: the survival was inactive: 91%.

As to `COc1ccc(-n2ncc(C(=O)NCCN3CCOCC3)c2C2CCN(C(=O)OC(C)(C)C)CC2)cc1`, the survival was inactive: 131%.

Consider `Cc1cccc(CSc2nnc(CCCCCN)o2)c1`, for which the survival is inactive: 76%.

Turning to `Cc1ccc(C)c(NC(=O)c2nnn(Cc3ccc(F)cc3Cl)c2N)c1`, the survival was inactive: 80%.

As to `Cn1nc(-c2ccccc2F)c2cc(C(=O)NCc3cccc(Cl)c3)sc21`, the survival is inactive: 70%.

`Cc1cc(C)cc(NC(=O)c2cc(S(=O)(=O)N3CCCC3)ccc2F)c1`: the survival was inactive: 90%.

With `O=C(O)CSc1nc2ccccc2c(=O)n1Cc1ccco1`, the survival is inactive: 107%.

For `COc1cc(OC)c(NC(=O)N2CCc3cc(S(=O)(=O)N4CCC(C)CC4)ccc32)cc1Cl`, the survival is inactive: 76%.

In the case of `O=c1oc2ccc3ccccc3c2cc1-c1nnc(Nc2cccc(C(F)(F)F)c2)s1`, the survival was inactive: 94%.

For `CCC1Oc2ccccc2N(CC(=O)NCCc2ccc(OC)c(OC)c2)C1=O` (stereo unspecified), the survival was inactive: 111%.

`O=C(NCCc1ccccc1)c1cnc2sc(N3CCCCC3)nn2c1=O`: the survival was inactive: 85%.

On to `COc1ccc(CCNS(=O)(=O)c2ccc(N3CCCCS3(=O)=O)cc2)cc1`, for which the survival was inactive: 127%.

On to `O=C(c1cc2c(s1)-c1ccccc1OC2)N1CCN(c2ccc(F)cc2)CC1`, for which the survival is inactive: 69%.

As to `CC1CCC(NC(=O)Cn2ncc3c4ccccc4n(Cc4ccc(F)cc4)c3c2=O)CC1` (stereo unspecified), the survival is inactive: 82%.

For `O=c1[nH]c2ccc(NCc3ccc(-c4ccc(F)cc4)o3)cc2[nH]1`, the survival is inactive: 102%.

Regarding `c1ccc2c(c1)ncc1nncn12`, the survival was inactive: 67%.

Take `CC(=O)c1cccc(NC(=O)C2CCN(S(=O)(=O)c3ccccc3)CC2)c1`: the survival is inactive: 73%.

As to `COc1ccc(CNC(=O)c2nn(C)c3c2CS(=O)(=O)c2ccccc2-3)cc1`, the survival was inactive: 87%.

Consider `Cc1ccc(CN(C(=O)COc2ccc([N+](=O)[O-])cc2)c2ccccn2)o1`, for which the survival was inactive: 83%.

`CCC1CCCCN1S(=O)(=O)c1cc2c(cc1C)NC(=O)CO2` (stereo unspecified): the survival was inactive: 98%.

With `CC(=O)c1ccc(NC(=O)CSc2ccc3nnc(CCNS(=O)(=O)c4ccc(C)cc4)n3n2)cc1`, the survival was inactive: 91%.

With `Cc1ccc(Nc2ncc(C(=O)Nc3ccc(F)cc3F)c3ccccc23)cc1Cl`, the survival was inactive: 76%.

As to `O=C(COc1ccccc1)Nc1nnc(SCc2cc(=O)n3cc(Cl)ccc3n2)s1`, the survival is inactive: 57%.

As to `COc1ccc(CCNC(=O)CCS(=O)(=O)c2cc3c(cc2Cl)NC(=O)CO3)cc1OC`, the survival is inactive: 86%.

`CCCc1nn2cc(-c3ccc(C)c(C)c3)nc2s1`: the survival is inactive: 117%.

Regarding `CCOC(=O)Cc1c(C)nc2c(-c3ccc(Cl)cc3)c(C(F)(F)F)nn2c1C`, the survival was inactive: 49%.

Consider `COc1ccc(-c2noc(CSc3nnc(Cc4ccccc4)n3-c3cccc(C)c3)n2)cc1`, for which the survival was inactive: 67%.

With `COc1ccc(/C=C/C(=O)Nc2ccc3nc4c(c(Nc5ccc(OC)c(OC)c5)c3c2)CCCC4)cc1`, the survival is inactive: 73%.

Regarding `Cc1cc(C)n(CC(C)O)c(=O)c1C#N` (stereo unspecified), the survival is inactive: 106%.

As for `CCc1nnc(SCC(=O)Nc2cccc(C(F)(F)F)c2)c2cc3oc(C)cc3n12`, the survival is inactive: 74%.

`Cc1ccc2onc(CNC(=O)NCc3ccccc3)c2c1`: the survival is inactive: 91%.

For `CCC(C(=O)Nc1ccccc1OC)n1c(C(=O)OC)cc2sc(Cl)cc21` (stereo unspecified), the survival was active: 0%.

With `Cc1oc(-c2ccccc2Cl)nc1CS(=O)(=O)CC(=O)NC(C)c1ccccc1` (stereo unspecified), the survival was inactive: 97%.

As for `CCOCCCNC(=O)c1ccc2c(=O)n(CCc3ccc(OC)c(OC)c3)c(=O)[nH]c2c1`, the survival is inactive: 85%.

As for `CC(=O)N1CCc2cc(S(=O)(=O)NC(CC(C)C)C(=O)NCCc3cccc(C)c3)ccc21` (stereo unspecified), the survival is inactive: 76%.

As for `CCOc1ccccc1CNC(=O)CSc1nnc(C)c2c(C)n(-c3ccccc3)nc12`, the survival was inactive: 72%.

With `Cc1ccc(NC(=O)c2ccc(CNS(=O)(=O)c3ccc4c(c3)C(C)(C)C(=O)N4C)cc2)cc1F`, the survival was inactive: 83%.

Regarding `CCCCOc1ccccc1C(=O)N(Cc1cccc(F)c1)C1CCS(=O)(=O)C1` (stereo unspecified), the survival is inactive: 85%.

In the case of `CCOC(=O)C1=C(CN(C)Cc2ccccc2)NC(=O)NC1c1ccc(OC)cc1` (stereo unspecified), the survival is inactive: 71%.

For the molecule `O=C(NCC(c1cccnc1)N1CCc2ccccc21)c1ccc(F)cc1` (stereo unspecified), the survival is inactive: 105%.

For `CCOc1ccc(NC(=O)N(C)CCc2c(C)nn(C)c2C)cc1`, the survival was inactive: 76%.

As for `CCOc1ccc(CCNC(=O)CSc2nnnn2-c2ccc(C)cc2C)cc1OCC`, the survival is inactive: 82%.

Consider `COc1ccc(OC(C)C(=O)NCc2nc(-c3cccc(C)c3)no2)cc1` (stereo unspecified), for which the survival was inactive: 87%.

Turning to `COCCN1Cc2cc3cc4c(cc3nc2SC1=Nc1cccc(OC)c1)OCO4`, the survival was inactive: 113%.

(Values after PubChem BioAssay AID463173 (ICCB-Longwood Screening Facility, Harvard Medical School, 2010).)
